Reference: the supplement of paper PMC10369915
Some of the results follow. Cut-off read from the data, not from the text of the source: active = 3.2 or more and inactive = the rest. Most of these values are background signal.

Legend:
Assay in all cases: enrichment score (SH2-bound / input frequency) (ratio); bacterial display of known human phosphotyrosine sites (pTyr-Var adds point mutants) read by sequencing; higher = stronger binding; tyrosines were phosphorylated by kinases first
Details in all cases: peptide library: Human pTyr
SHP2 C-SH2 domain E139D = biological target: SHP2 C-SH2 domain E139D
[1] = biological target: SHP2 C-SH2 domain wild-type
SHP2 N-SH2 domain L43F = biological target: SHP2 N-SH2 domain L43F
SHP2 N-SH2 domain T42A = biological target: SHP2 N-SH2 domain T42A
SHP2 N-SH2 domain T52S = biological target: SHP2 N-SH2 domain T52S
[2] = biological target: SHP2 N-SH2 domain wild-type
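Note: displayed peptides selected on beads carrying the immobilized SH2 domain, with library peptides lacking any tyrosine serving as negative controls.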

Row | Binder | enrichment score (SHP2 C-SH2 domain E139D) | enrichment score [1] | enrichment score (SHP2 N-SH2 domain L43F) | enrichment score (SHP2 N-SH2 domain T42A) | enrichment score (SHP2 N-SH2 domain T52S) | enrichment score [2]
1 | SACTMGAYHPLLAEK [SIAT1_HUMAN_369_YA] | inactive: 1.22 | inactive: 1.05 | inactive: 1.24 | inactive: 1.12 | inactive: 1.4 | inactive: 1.33
2 | GDGSDHPYANSIPSK [SHC3_HUMAN_341_YA] | inactive: 0.637 | inactive: 0.592 | inactive: 0.668 | inactive: 0.534 | inactive: 0.634 | inactive: 0.672
3 | FKFNEENYGVKTTAD [ATX2L_HUMAN_264_YA] | inactive: 0.7 | inactive: 0.726 | inactive: 0.707 | inactive: 0.58 | inactive: 0.774 | inactive: 0.59
4 | NLKKFMDYVQLHSTD [SHAN3_HUMAN_122] | inactive: 1.1 | inactive: 0.869 | inactive: 1.08 | inactive: 0.839 | inactive: 0.875 | inactive: 0.907
5 | EMFENPLYGSLSSFP [SHIP1_HUMAN_1022] | inactive: 0.725 | inactive: 0.552 | inactive: 0.617 | inactive: 0.569 | inactive: 0.751 | inactive: 0.579
6 | SVEEVPLYGNLHYLQ [SIT1_HUMAN_90] | inactive: 0.857 | inactive: 0.793 | inactive: 0.661 | inactive: 0.685 | inactive: 0.773 | inactive: 0.845
7 | AMLDSGIYPPGSPGK [SNAPN_HUMAN_129] | inactive: 0.475 | inactive: 0.542 | inactive: 0.538 | inactive: 0.5 | inactive: 0.589 | inactive: 0.497
8 | DMSASAGYEEISDPD [SH3PXD2B_HUMAN_508] | inactive: 1.41 | inactive: 1.24 | inactive: 1.04 | inactive: 1.31 | inactive: 1.34 | inactive: 1.31
9 | EPPDHQAYNDFPGKE [SHC1_HUMAN_350_YA] | inactive: 0.653 | inactive: 0.531 | inactive: 0.664 | inactive: 0.615 | inactive: 0.717 | inactive: 0.581
10 | FKFNEENYGVKTTYD [ATX2L_HUMAN_264] | inactive: 0.688 | inactive: 0.805 | inactive: 0.714 | inactive: 0.64 | inactive: 0.747 | inactive: 0.961
11 | FHQLRIQYGTSKGKN [SMCA1_HUMAN_954] | inactive: 2.45 | inactive: 2.16 | inactive: 1.87 | inactive: 2.19 | inactive: 2.18 | inactive: 2.74
12 | VVKAGESYTHIQALF [SH2D3_HUMAN_278_YA] | inactive: 1.06 | inactive: 1.1 | inactive: 1.02 | inactive: 0.949 | inactive: 1.01 | inactive: 1.1
13 | AIRNTNEYTEGPTVV [SPRY2_HUMAN_55] | inactive: 0.621 | inactive: 0.658 | inactive: 0.805 | inactive: 0.621 | inactive: 0.71 | inactive: 0.754
14 | SAPDKRIYQFTAASP [SKAP2_HUMAN_197] | inactive: 1.01 | inactive: 0.785 | inactive: 0.818 | inactive: 0.856 | inactive: 0.882 | inactive: 1.01
15 | DGSDHPAYNSIPSKM [SHC3_HUMAN_342_YA] | inactive: 0.687 | inactive: 0.522 | inactive: 0.555 | inactive: 0.505 | inactive: 0.552 | inactive: 0.663
16 | ASFPDQAYANSQPAA [SIT1_HUMAN_188] | inactive: 0.62 | inactive: 0.538 | inactive: 0.565 | inactive: 0.643 | inactive: 0.799 | inactive: 0.557
17 | DSLEHNYYNSIPGKE [SHC2_HUMAN_339] | inactive: 0.813 | inactive: 0.705 | inactive: 0.829 | inactive: 0.659 | inactive: 0.836 | inactive: 1.29
18 | KDESRNVYAELNDVR [SKT_HUMAN_244_YA] | inactive: 0.989 | inactive: 0.817 | inactive: 0.824 | inactive: 0.819 | inactive: 0.771 | inactive: 0.856

Row | Binder | enrichment score (SHP2 C-SH2 domain E139D) | enrichment score [1] | enrichment score (SHP2 N-SH2 domain L43F) | enrichment score (SHP2 N-SH2 domain T42A) | enrichment score (SHP2 N-SH2 domain T52S) | enrichment score [2]
19 | VSRGLFAYAANEKSK [SKAP1_HUMAN_142_YA] | inactive: 1.37 | inactive: 1.17 | inactive: 0.887 | inactive: 1.18 | inactive: 1.32 | inactive: 1.4
20 | SGPEPELYASVCAQT [SIT1_HUMAN_169] | inactive: 1.96 | inactive: 1.14 | inactive: 1.71 | inactive: 1.19 | inactive: 1.61 | inactive: 1.23
21 | EAPSTTEYSEIKIHT [SIG11_HUMAN_668] | inactive: 1.19 | active: 3.26 | inactive: 0.884 | inactive: 0.969 | inactive: 0.913 | inactive: 1.14
22 | MYRNEGFYADPYLYH [SKT_HUMAN_393] | inactive: 0.928 | inactive: 0.948 | inactive: 0.917 | inactive: 0.855 | inactive: 1.07 | inactive: 0.99
23 | VPGQQGKYRGAKGSL [ATXN2L_HUMAN_744] | inactive: 1.03 | inactive: 1.12 | inactive: 1 | inactive: 0.911 | inactive: 0.937 | inactive: 1.12
24 | ARIEEFVYEKLDRKA [SH3GLB1_HUMAN_80] | inactive: 0.639 | inactive: 0.473 | inactive: 0.632 | inactive: 0.685 | inactive: 0.805 | inactive: 0.702
25 | EKEEEDIYEVLPDEE [SKAP1_HUMAN_271] | inactive: 1.12 | inactive: 1.13 | inactive: 0.85 | inactive: 1.19 | inactive: 1.09 | inactive: 1.31
26 | EDSLEHNYANSIPGK [SHC2_HUMAN_338_YA] | inactive: 0.668 | inactive: 0.565 | inactive: 0.629 | inactive: 0.62 | inactive: 0.745 | inactive: 0.543
27 | WMTGAEDYRHAPVRG [SPRE2_HUMAN_231_YA] | inactive: 0.73 | inactive: 0.615 | inactive: 0.752 | inactive: 0.747 | inactive: 0.876 | inactive: 0.733
28 | ELFDDPSYVNVQNLD [SHC1_HUMAN_427] | inactive: 0.951 | inactive: 0.751 | inactive: 0.703 | inactive: 0.907 | inactive: 0.798 | inactive: 0.939
29 | SEEGAQDYEPEAGGG [SNCA_HUMAN_136_YA] | inactive: 1.49 | inactive: 0.958 | inactive: 1.46 | inactive: 1.01 | inactive: 1.16 | inactive: 0.979
30 | SPVFEGVYNNSRMLH [ATX2L_HUMAN_118] | inactive: 0.657 | inactive: 0.532 | inactive: 0.568 | inactive: 0.515 | inactive: 0.513 | inactive: 0.475
31 | AASKKTIYTYIMASR [SLAF5_HUMAN_279] | inactive: 1.89 | active: 3.94 | inactive: 1.73 | active: 3.26 | inactive: 2.83 | inactive: 2.74
32 | SFFSSPPYFEDGGGG [SLAP1_HUMAN_273] | inactive: 0.986 | inactive: 0.73 | inactive: 0.688 | inactive: 0.629 | inactive: 1.05 | inactive: 0.796
33 | IREFLDQYDAPLGGG [SOCS3_HUMAN_221] | inactive: 0.89 | inactive: 0.464 | inactive: 0.76 | inactive: 0.656 | inactive: 0.709 | inactive: 0.501
34 | VSRGLFYYYANEKSK [SKAP1_HUMAN_142] | inactive: 1.74 | inactive: 2.34 | inactive: 1.75 | inactive: 2.13 | inactive: 1.93 | inactive: 2.74
35 | EDSLEHNYYNSIPGK [SHC2_HUMAN_338] | inactive: 0.731 | inactive: 0.83 | inactive: 0.648 | inactive: 0.757 | inactive: 0.708 | inactive: 0.882
36 | GPGTPVKYSEVVLDS [SIT1_HUMAN_148] | active: 11 | active: 20 | active: 8.12 | active: 23.4 | active: 5.65 | inactive: 1.56
